Test results published in US20240425561A1 (Hoffmann-La Roche, published 2024).

T1: IL-7 receptor (IL-7Ra/common gamma chain) on activated human CD4 T cells (human, UniProt P16871 21-459; P31785 23-369)
T1 sequence (looked up) 1: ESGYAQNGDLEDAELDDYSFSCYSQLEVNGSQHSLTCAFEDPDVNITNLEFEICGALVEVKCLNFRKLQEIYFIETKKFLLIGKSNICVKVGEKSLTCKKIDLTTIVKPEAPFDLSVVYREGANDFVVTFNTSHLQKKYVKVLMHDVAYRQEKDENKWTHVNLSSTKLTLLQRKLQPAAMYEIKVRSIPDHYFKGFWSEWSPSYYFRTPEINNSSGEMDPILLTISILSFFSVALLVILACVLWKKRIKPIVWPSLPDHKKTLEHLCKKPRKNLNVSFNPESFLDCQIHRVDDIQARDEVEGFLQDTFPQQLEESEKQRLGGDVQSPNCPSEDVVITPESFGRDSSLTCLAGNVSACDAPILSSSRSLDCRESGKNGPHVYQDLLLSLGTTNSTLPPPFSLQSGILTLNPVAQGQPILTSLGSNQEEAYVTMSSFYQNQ
T1 sequence (looked up) 2: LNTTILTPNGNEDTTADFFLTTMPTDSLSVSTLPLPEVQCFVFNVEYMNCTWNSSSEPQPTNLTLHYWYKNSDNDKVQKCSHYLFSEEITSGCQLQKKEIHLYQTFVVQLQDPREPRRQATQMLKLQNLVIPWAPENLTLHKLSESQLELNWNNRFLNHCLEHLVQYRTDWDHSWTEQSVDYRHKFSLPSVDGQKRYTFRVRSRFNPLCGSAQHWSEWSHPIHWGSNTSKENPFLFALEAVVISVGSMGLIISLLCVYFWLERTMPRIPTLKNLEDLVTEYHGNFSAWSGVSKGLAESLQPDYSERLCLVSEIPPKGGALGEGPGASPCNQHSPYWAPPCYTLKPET


What was measured:
[1] = biological target: T1, IL-7 receptor (IL-7Ra/common gamma …); assay: cell-based or functional assay
[2] = biological target: human PD-1 on activated CD4 T cells (human, UniProt Q15116 25-288); assay: cell-based or functional assay
Sequence of UniProt Q15116 (Q15116 25-288 limits assumed): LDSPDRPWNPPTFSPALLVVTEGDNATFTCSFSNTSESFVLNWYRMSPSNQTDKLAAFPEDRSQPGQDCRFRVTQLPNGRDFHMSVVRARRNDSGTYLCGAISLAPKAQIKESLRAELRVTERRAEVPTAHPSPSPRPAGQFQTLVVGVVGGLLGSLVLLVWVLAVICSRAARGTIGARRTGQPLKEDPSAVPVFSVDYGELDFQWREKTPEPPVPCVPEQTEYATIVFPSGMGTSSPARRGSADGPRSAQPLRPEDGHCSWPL

| Binder | Fold reduction in potency as EC50 [PD1^+]/EC50 [PD1^+ PD1-IL7wt] [1] [fold] | cis-activity as EC50 [PD1^- pre-blocked]/EC50 [PD1^+] [2] [fold] |
| --- | --- | --- |
| Reference molecule 5 (other) light: DIVMTQSPDSLAVSLGERATINCKASESVDTSDNSFIHWYQQKPGQSPKLLIYRSSTLESGVPDRFSGSGSGTDFTLTISSLQAEDVAVYYCQQNYDVPWTFGQGTKVEIKRTVAAPSVFIFPPSDEQLKSGTASVVCLLNNFYPREAKVQWKVDNALQSGNSQESVTEQDSKDSTYSLSSTLTLSKADYEKHKVYACEVTHQGLSSPVTKSFNRGEC heavy 1: EVQLLESGGGLVQPGGSLRLSCAASGFSFSSYTMSWVRQAPGKGLEWVATISGGGRDIYYPDSVKGRFTISRDNSKNTLYLQMNSLRAEDTAVYYCVLLTGRVYFALDSWGQGTLVTVSSASTKGPSVFPLAPSSKSTSGGTAALGCLVKDYFPEPVTVSWNSGALTSGVHTFPAVLQSSGLYSLSSVVTVPSSSLGTQTYICNVNHKPSNTKVDKKVEPKSCDKTHTCPPCPAPEAAGGPSVFLFPPKPKDTLMISRTPEVTCVVVDVSHEDPEVKFNWYVDGVEVHNAKTKPREEQYNSTYRVVSVLTVLHQDWLNGKEYKCKVSNKALGAPIEKTISKAKGQPREPQVCTLPPSRDELTKNQVSLSCAVKGFYPSDIAVEWESNGQPENNYKTTPPVLDSDGSFFLVSKLTVDKSRWQQGNVFSCSVMHEALHNHYTQKSLSLSPGK heavy 2: EVQLLESGGGLVQPGGSLRLSCAASGFSFSSYTMSWVRQAPGKGLEWVATISGGGRDIYYPDSVKGRFTISRDNSKNTLYLQMNSLRAEDTAVYYCVLLTGRVYFALDSWGQGTLVTVSSASTKGPSVFPLAPSSKSTSGGTAALGCLVKDYFPEPVTVSWNSGALTSGVHTFPAVLQSSGLYSLSSVVTVPSSSLGTQTYICNVNHKPSNTKVDKKV[human IgG1 Fc with changes left out here]GGGGSGGGGSGGGGSDCDIEGKDGKQYESVLMVSIDQLLDSMKEIGSNCLNNEFNFFKRHICDANKEGMFLFRAARKLRQFLKMNSTGEFDLHLLKVSEGTTILLNCTGQVKGRKPAALGEAQPTKSLEENKSLKEQKKLNDLCFLKRLLQEIKTCWNKILMGTKEH |  | 2 |
| PD1-IL7wt (other) light: DIVMTQSPDSLAVSLGERATINCKASESVDTSDNSFIHWYQQKPGQSPKLLIYRSSTLESGVPDRFSGSGSGTDFTLTISSLQAEDVAVYYCQQNYDVPWTFGQGTKVEIKRTVAAPSVFIFPPSDEQLKSGTASVVCLLNNFYPREAKVQWKVDNALQSGNSQESVTEQDSKDSTYSLSSTLTLSKADYEKHKVYACEVTHQGLSSPVTKSFNRGEC heavy 1: EVQLLESGGGLVQPGGSLRLSCAASGFSFSSYTMSWVRQAPGKGLEWVATISGGGRDIYYPDSVKGRFTISRDNSKNTLYLQMNSLRAEDTAVYYCVLLTGRVYFALDSWGQGTLVTVSSASTKGPSVFPLAPSSKSTSGGTAALGCLVKDYFPEPVTVSWNSGALTSGVHTFPAVLQSSGLYSLSSVVTVPSSSLGTQTYICNVNHKPSNTKVDKKVEPKSCDKTHTCPPCPAPEAAGGPSVFLFPPKPKDTLMISRTPEVTCVVVDVSHEDPEVKFNWYVDGVEVHNAKTKPREEQYNSTYRVVSVLTVLHQDWLNGKEYKCKVSNKALGAPIEKTISKAKGQPREPQVCTLPPSRDELTKNQVSLSCAVKGFYPSDIAVEWESNGQPENNYKTTPPVLDSDGSFFLVSKLTVDKSRWQQGNVFSCSVMHEALHNHYTQKSLSLSPGK heavy 2: EVQLLESGGGLVQPGGSLRLSCAASGFSFSSYTMSWVRQAPGKGLEWVATISGGGRDIYYPDSVKGRFTISRDNSKNTLYLQMNSLRAEDTAVYYCVLLTGRVYFALDSWGQGTLVTVSSASTKGPSVFPLAPSSKSTSGGTAALGCLVKDYFPEPVTVSWNSGALTSGVHTFPAVLQSSGLYSLSSVVTVPSSSLGTQTYICNVNHKPSNTKVDKKV[human IgG1 Fc with changes left out here]GGGGSGGGGSGGGGSDCDIEGKDGKQYESVLMVSIDQLLDSMKEIGSNCLNNEFNFFKRHICDANKEGMFLFRAARKLRQFLKMNSTGDFDLHLLKVSEGTTILLNCTGQVKGRKPAALGEAQPTKSLEENKSLKEQKKLNDLCFLKRLLQEIKTCWNKILMGTKEH | 1 |  |

More lines, now with the values ahead:

| Fold reduction in potency as EC50 [PD1^+]/EC50 [PD1^+ PD1-IL7wt] [1] [fold] | cis-activity as EC50 [PD1^- pre-blocked]/EC50 [PD1^+] [2] [fold] | Binder |
| --- | --- | --- |
| 3.28 |  | PD1-IL7 VAR18/VAR21 fully glycosylated (other) light: DIVMTQSPDSLAVSLGERATINCKASESVDTSDNSFIHWYQQKPGQSPKLLIYRSSTLESGVPDRFSGSGSGTDFTLTISSLQAEDVAVYYCQQNYDVPWTFGQGTKVEIKRTVAAPSVFIFPPSDEQLKSGTASVVCLLNNFYPREAKVQWKVDNALQSGNSQESVTEQDSKDSTYSLSSTLTLSKADYEKHKVYACEVTHQGLSSPVTKSFNRGEC heavy 1: EVQLLESGGGLVQPGGSLRLSCAASGFSFSSYTMSWVRQAPGKGLEWVATISGGGRDIYYPDSVKGRFTISRDNSKNTLYLQMNSLRAEDTAVYYCVLLTGRVYFALDSWGQGTLVTVSSASTKGPSVFPLAPSSKSTSGGTAALGCLVKDYFPEPVTVSWNSGALTSGVHTFPAVLQSSGLYSLSSVVTVPSSSLGTQTYICNVNHKPSNTKVDKKVEPKSCDKTHTCPPCPAPEAAGGPSVFLFPPKPKDTLMISRTPEVTCVVVDVSHEDPEVKFNWYVDGVEVHNAKTKPREEQYNSTYRVVSVLTVLHQDWLNGKEYKCKVSNKALGAPIEKTISKAKGQPREPQVCTLPPSRDELTKNQVSLSCAVKGFYPSDIAVEWESNGQPENNYKTTPPVLDSDGSFFLVSKLTVDKSRWQQGNVFSCSVMHEALHNHYTQKSLSLSPGK heavy 2: EVQLLESGGGLVQPGGSLRLSCAASGFSFSSYTMSWVRQAPGKGLEWVATISGGGRDIYYPDSVKGRFTISRDNSKNTLYLQMNSLRAEDTAVYYCVLLTGRVYFALDSWGQGTLVTVSSASTKGPSVFPLAPSSKSTSGGTAALGCLVKDYFPEPVTVSWNSGALTSGVHTFPAVLQSSGLYSLSSVVTVPSSSLGTQTYICNVNHKPSNTKVDKKV[human IgG1 Fc with changes left out here]GGGGSGGGGSGGGGSDCDIEGKDGKQYESVLMVSIDQLLDSMKEIGSNCLNNEFNFFKRHICDANKEGMFLFRAARKLRQFLKMNSTGDFDLHLLEVSEETTILLNCTGQVKGRKPAALGEAQPTKSLEENKSLKEQKKLNDLCFLKRLLQEIKTCWNKILMGTKEH |
| 2.17 |  | PD1-IL7 VAR18/VAR21 partially glycosylated (other) light: DIVMTQSPDSLAVSLGERATINCKASESVDTSDNSFIHWYQQKPGQSPKLLIYRSSTLESGVPDRFSGSGSGTDFTLTISSLQAEDVAVYYCQQNYDVPWTFGQGTKVEIKRTVAAPSVFIFPPSDEQLKSGTASVVCLLNNFYPREAKVQWKVDNALQSGNSQESVTEQDSKDSTYSLSSTLTLSKADYEKHKVYACEVTHQGLSSPVTKSFNRGEC heavy 1: EVQLLESGGGLVQPGGSLRLSCAASGFSFSSYTMSWVRQAPGKGLEWVATISGGGRDIYYPDSVKGRFTISRDNSKNTLYLQMNSLRAEDTAVYYCVLLTGRVYFALDSWGQGTLVTVSSASTKGPSVFPLAPSSKSTSGGTAALGCLVKDYFPEPVTVSWNSGALTSGVHTFPAVLQSSGLYSLSSVVTVPSSSLGTQTYICNVNHKPSNTKVDKKVEPKSCDKTHTCPPCPAPEAAGGPSVFLFPPKPKDTLMISRTPEVTCVVVDVSHEDPEVKFNWYVDGVEVHNAKTKPREEQYNSTYRVVSVLTVLHQDWLNGKEYKCKVSNKALGAPIEKTISKAKGQPREPQVCTLPPSRDELTKNQVSLSCAVKGFYPSDIAVEWESNGQPENNYKTTPPVLDSDGSFFLVSKLTVDKSRWQQGNVFSCSVMHEALHNHYTQKSLSLSPG heavy 2: EVQLLESGGGLVQPGGSLRLSCAASGFSFSSYTMSWVRQAPGKGLEWVATISGGGRDIYYPDSVKGRFTISRDNSKNTLYLQMNSLRAEDTAVYYCVLLTGRVYFALDSWGQGTLVTVSSASTKGPSVFPLAPSSKSTSGGTAALGCLVKDYFPEPVTVSWNSGALTSGVHTFPAVLQSSGLYSLSSVVTVPSSSLGTQTYICNVNHKPSNTKVDKKV[human IgG1 Fc with changes left out here]GGGGSGGGGSGGGGDCDIEGKDGKQYESVLMVSIDQLLDSMKEIGSNCLNNEFNFFKRHICDANKEGMFLFRAARKLRQFLKMNSTGDFDLHLLEVSEETTILLNCAGQVKGRKPAALGEAQPTKSLEENKALKEQKKLNDLCFLKRLLQEIKTCWNKILMGTKEH |
|  | 32.1 | Reference molecule 6 (other) light: DIVMTQSPDSLAVSLGERATINCKASESVDTSDNSFIHWYQQKPGQSPKLLIYRSSTLESGVPDRFSGSGSGTDFTLTISSLQAEDVAVYYCQQNYDVPWTFGQGTKVEIKRTVAAPSVFIFPPSDEQLKSGTASVVCLLNNFYPREAKVQWKVDNALQSGNSQESVTEQDSKDSTYSLSSTLTLSKADYEKHKVYACEVTHQGLSSPVTKSFNRGEC heavy 1: EVQLLESGGGLVQPGGSLRLSCAASGFSFSSYTMSWVRQAPGKGLEWVATISGGGRDIYYPDSVKGRFTISRDNSKNTLYLQMNSLRAEDTAVYYCVLLTGRVYFALDSWGQGTLVTVSSASTKGPSVFPLAPSSKSTSGGTAALGCLVKDYFPEPVTVSWNSGALTSGVHTFPAVLQSSGLYSLSSVVTVPSSSLGTQTYICNVNHKPSNTKVDKKVEPKSCDKTHTCPPCPAPEAAGGPSVFLFPPKPKDTLMISRTPEVTCVVVDVSHEDPEVKFNWYVDGVEVHNAKTKPREEQYNSTYRVVSVLTVLHQDWLNGKEYKCKVSNKALGAPIEKTISKAKGQPREPQVCTLPPSRDELTKNQVSLSCAVKGFYPSDIAVEWESNGQPENNYKTTPPVLDSDGSFFLVSKLTVDKSRWQQGNVFSCSVMHEALHNHYTQKSLSLSPGK heavy 2: EVQLLESGGGLVQPGGSLRLSCAASGFSFSSYTMSWVRQAPGKGLEWVATISGGGRDIYYPDSVKGRFTISRDNSKNTLYLQMNSLRAEDTAVYYCVLLTGRVYFALDSWGQGTLVTVSSASTKGPSVFPLAPSSKSTSGGTAALGCLVKDYFPEPVTVSWNSGALTSGVHTFPAVLQSSGLYSLSSVVTVPSSSLGTQTYICNVNHKPSNTKVDKKV[human IgG1 Fc with changes left out here]GGGGSGGGGSGGGGSDSDIEGKDGKQYESVLMVSIDQLLDSMKEIGSNCLNNEFNFFKRHISDANKEGMFLFRAARKLRQFLKMNSTGDFDLHLLKVSEGTTILLNSTGQVKGRKPAALGEAQPTKSLEENKSLKEQKKLNDLCFLKRLLQEIKTSWNKILMGTKEH |
